Data taken from publication PMC12136788.
Some of the results follow.

T1: UNK ZnF1-3 (human, UniProt Q9C0B0 31-174)
T1 sequence: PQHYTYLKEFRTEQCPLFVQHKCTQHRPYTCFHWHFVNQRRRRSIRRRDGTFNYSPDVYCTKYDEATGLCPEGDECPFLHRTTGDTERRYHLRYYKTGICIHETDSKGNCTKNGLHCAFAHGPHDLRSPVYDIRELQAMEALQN

B1: chr3:10015032:10015033:+_ENSMUSG00000027533_ENSMUST00000029046|mus_mus|mus_mus_mus_hu_True|78_108 (ssRNA)
RNA: GGGAGUUCUACAGUCCGACGAUCGUUGUUGCCAUCACAAGUGAUGAUACAAUCUGGCUUGGCCAUGGCGCCCAUUUUUCGCAAAGCUAUUCCCACUCCUAGCUCCUUCAUGUAUUCAUCAAAGCCUUUGCUGUCCACCAGGCGCAACAGAGGAUUGAGCAUCA
B2: chr2:242098653:242098654:+_ENSG00000115685_ENST00000406106|hu_hu|FALSE|FALSE (ssRNA)
RNA: GGGAGUUCUACAGUCCGACGAUCGUCGUAAAGAUCCAGCUCUCGAAGACUCUGUAGCUCCUCCAGAUUCUCAAUGCAUUUAAUUAAAUUUUGGCGGAGGCAGAGAGUCUUCACUUUCUUCAGUACCUCAAAUCCUUCAAUCUUCAACAGAGGAUUGAGCAUCA
B3: chr12:118855022:118855023:+_ENSG00000111707_ENST00000543473|hu_hu|motif|central (ssRNA)
RNA: GGGAGUUCUACAGUCCGACGAUCUACACUGGCCCCAAUUAGAAGUUCAAAAACAAAAAUUAAGUUAGGUAGUCAGACAUCGGUAAAUACUAGUAUCCGCAUGAAUGAAAACACCCUGGCUUUGGUAUGGCUACAGAAAUCCAUCAACAGAGGAUUGAGCAUCA
B4: chr17:64801638:64801639:+_ENSG00000154229_ENST00000413366|hu_mus|hu_hu_hu_mus_False|58_108 (ssRNA)
RNA: GGGAGUUCUACAGUCCGACGAUCUAUAAAUACAUAUACAUAUGUACACAUAUAUAGUAAAACCCUAGUUAAACGUGUAAACUAGCCAUUCAUUUUUAAAAUUACAUCUACAUUAAAAAAUUAAUAUAUCUGAUAGAGUGCCAGCAACAGAGGAUUGAGCAUCA
B5: chr5:4754414:4754415:-_ENSMUSG00000044674_ENSMUST00000054294|mus_mus|motif|central (ssRNA)
RNA: GGGAGUUCUACAGUCCGACGAUCGAGUAAGCAAAGUGUAUUGUUGAUUGUGUACAACUUUUAGAUUGCAAAGACACAUCGGAUUGCAGUUUGGCUAAAACCAGAAAACAGCGUUUCACUUGGAGUAACUCCACUUCACUGAAACAACAGAGGAUUGAGCAUCA
B6: chr18:58099821:58099822:+_ENSMUSG00000024597_ENSMUST00000115366|mus_hu|FALSE|FALSE (ssRNA)
RNA: GGGAGUUCUACAGUCCGACGAUCAUUUUCUUUCUUUGGUUUGGUAUUGAUAUCUCCUAGAACCAUGAUAUCAGAAAAGUCUAUCCGGAACUUGCUAAGCAAAGUAGCCAUCGCUCUCCGGUCAUGGUCUAUUCUGUUUAUCUUCAACAGAGGAUUGAGCAUCA
B7: chr7:151048522:151048523:+_ENSG00000013374_ENST00000566856|hu_mus|hu_hu_hu_mus_True|1_58 (ssRNA)
RNA: GGGAGUUCUACAGUCCGACGAUCCUGUUUCUUAUUUAUUACGAUCUUGAUGUAAUUUUCUUGAAAUCCGAAAGUUUCAGCUAUUUUACACCUCAGGUCUCUACCAGUGACAUGCAAGCGGGUCUCCAACAAGCUUUUCCUAUCCAACAGAGGAUUGAGCAUCA
B8: chr1:90180218:90180219:+_ENSG00000171488_ENST00000370454|hu_hu|FALSE|FALSE (ssRNA)
RNA: GGGAGUUCUACAGUCCGACGAUCACAUGUGAUGGAAAAAUACUGUAAACUUUGUAGAACUCCAAUUUCAGGGGGGAUAAAUCGAAUGUCAUUGUACGAUAAGUCCAAGUAUCGGAUCUUGUUGCAUAGGAAGAGGUGGGAAGGCAACAGAGGAUUGAGCAUCA
B9: chr1:163117127:163117128:-_ENSG00000143248_ENST00000313961|hu_mus|hu_hu_hu_mus_False|48_88 (ssRNA)
RNA: GGGAGUUCUACAGUCCGACGAUCUGCUACAAAGGAUGUAACUCAACACUCACAGGAACUUUUGGAAGCCUGACCAGAUGACUACUUGAUUAACUCCUUAUAAAAUUCAGAGCGCACAAAGCGGGGCAGAGAAUCCUUCUCCAUCAACAGAGGAUUGAGCAUCA
B10: chr1:89687925:89687926:+_ENSMUSG00000026289_ENSMUST00000027512|mus_mus|motif|central (ssRNA)
RNA: GGGAGUUCUACAGUCCGACGAUCUUUUCUGGGAGGACACAUCAUUCUCCAAGAUGGGCCGUGGGGUCCCACGGUGCUCCGGAGGGUGCAGCAUCAAGGCUGUGCCCACAGCACAGCUCUGCUUCCUUUGUCCACACUGACAACCAACAGAGGAUUGAGCAUCA
B11: 11932039_11935560_1758_CDS_ENSG00000134324_ENST00000256720|human|control|control (ssRNA)
RNA: GGGAGUUCUACAGUCCGACGAUCAGCCAAGCACUGCUCUGGCUUACUUUCCUCCUUGAUUGUGGUGUUUCUUCCCCUCCAUGAAAACCACCAUCUUCCUCCCUUUUUGGGCAUUUUAUCCCUCAUGAUAGAUUCCACAGUGGCCAACAGAGGAUUGAGCAUCA
B12: chr17:5392700:5392701:+_ENSG00000167842_ENST00000573759|hu_mus|motif|central (ssRNA)
RNA: GGGAGUUCUACAGUCCGACGAUCGCUCUGAAGUUUUCUGCAGCUCUGGACCAGGGAUGCCAAACUCUCCCUAAAGUUACGGGUUCCUUGAUAUCUGCCGAUGUUUUCAAGCUCAUCAAAGAAAGUCAAGGUCUCUCUGAGUUUCAACAGAGGAUUGAGCAUCA
B13: chr3:150289932:150289933:+_ENSG00000144895_ENST00000460851|hu_hu|hu_hu_hu_mus_False|18_108 (ssRNA)
RNA: GGGAGUUCUACAGUCCGACGAUCCUUGUAGUUUUUCACAUCCCAUACUUCCAUUUGUCCUCGAAGAUUUCCAAAUCCAGCCAGCACUAAUAUAUGUCCAUGAGGGCUAUAGAAGGCUGCAUUACGAGGACCAGUCCCAAAGUCCAACAGAGGAUUGAGCAUCA
B14: chr4:148551591:148551592:-_ENSMUSG00000063077_ENSMUST00000060537|mus_hu|mus_mus_mus_hu_False|8_108 (ssRNA)
RNA: GGGAGUUCUACAGUCCGACGAUCACCUUACAAAAUUAAAUAUCCCUGUAAAUUAGACAAUAAGCAGCAGGCAACAAAGUCUUUGCUUUGGAAUAUGUGCCAGGAAAAGUCAUCUUGUUUUUAGAUCACACCUUUCAGUUCACACAACAGAGGAUUGAGCAUCA
B15: chr7:141438946:141438947:+_ENSG00000106028_ENST00000265304|hu_mus|hu_hu_hu_mus_True|1_108 (ssRNA)
RNA: GGGAGUUCUACAGUCCGACGAUCGACUACCUGUAAUUAACACAGGUCUUCGAAACAUGGCUUCUGUUUUUCUUACAACCUAAUCUUUAGGCUUUUCCUAAAGGAAAGAAAGAAAAGAGAAAAAUGAUAAAUCAAGAACUUCCGCAACAGAGGAUUGAGCAUCA
B16: chr10:75834556:75834557:+_ENSG00000035403_ENST00000372755|perfect_dup|FALSE|FALSE (ssRNA)
RNA: GGGAGUUCUACAGUCCGACGAUCGUUAAUUUCAGCACUCAUCUUUUCUACAGUAAAAUUUCGAUUUUUCAAAGCUUCUUCUAUUCCUUGGUUUUUUGAGUUUUUGGUUGUAACAAAAAUCUUCAUAGCUGAAAUGAGAACAGGCAACAGAGGAUUGAGCAUCA
B17: chr2:191769783:191769784:+_ENSG00000115419_ENST00000338435|hu_hu|FALSE|FALSE (ssRNA)
RNA: GGGAGUUCUACAGUCCGACGAUCAACAUAUCGAUGCACAUAUUCAGUUCCAAGAUCAUUAACAGCAAUGGCAUAUUUCAAAGGUUUUACACAGGACUGAAGACAGAAGGGAACUUUGGUAUCUCCAGUAGAAUGCCUCUGUCCCAACAGAGGAUUGAGCAUCA
B18: chr2:166767530:166767531:+_ENSMUSG00000002718_ENSMUST00000002790|mus_mus|motif|central (ssRNA)
RNA: GGGAGUUCUACAGUCCGACGAUCAAAUAUUUCUUGUAAUGCUAGUGCCCCAUACUUAAUGCAAUAUAAGUUAAUAAACACGGAGAAACUCUUGAUAAACUUGGUGGUCUUGGAGUUUUGCAGUCUCUGGAAUAGUAGAAUGAACAACAGAGGAUUGAGCAUCA
B19: chrX:77158196:77158197:+_ENSG00000131174_ENST00000481445|hu_hu|FALSE|FALSE (ssRNA)
RNA: GGGAGUUCUACAGUCCGACGAUCUCCGACUUGUGUUGCUACAUAUGUCCAUGUAACAAUACAGAAAGUGGCUCCACUAGCUAAUACAGCAUUACCGUAUUUGUCAUGAAAAUCAGGUGUACGUUUCUGGUGGCUCUGCCUUGCCAACAGAGGAUUGAGCAUCA
B20: chr9:107755404:107755405:-_ENSMUSG00000032582_ENSMUST00000035201|mus_hu|motif|central (ssRNA)
RNA: GGGAGUUCUACAGUCCGACGAUCCUCUAUAAUCCAUAGAAGUACCAUCUCCACCCCUAUAGUCCAUAGGUGGUCCUUCUCGGUCCCGAAAAUCCCCAGAAUGUAUGUCCCUACCCCUGAAGUCCAACUGUGAUGAAUCUCUGCCAACAGAGGAUUGAGCAUCA
B21: chr12:121221538:121221539:-_ENSG00000157837_ENST00000353487|hu_hu|motif|central (ssRNA)
RNA: GGGAGUUCUACAGUCCGACGAUCAGGUGAGCAGGGUCUUGUUAAAUACUGGCACAUCGGGAGGAGAAGAAAAGCAAAAGCGGUCGUUGCAAGAACUGCUGUACAUAUUGUAAAAACUACUUGAACUGAGUCAAAGAAGAAGAACAACAGAGGAUUGAGCAUCA
B22: chr3:88516089:88516090:+_ENSMUSG00000028060_ENSMUST00000029696|mus_mus|motif|central (ssRNA)
RNA: GGGAGUUCUACAGUCCGACGAUCAUUGACCCAAUAGUAGUAAAAUACAAAUAAAACUUUCUUUACAACAGAGUUGAGGCGGUUCAUUUGGAAAAGGCUAGAUCAGGUCAAACAUAUGUAGCAAUGACUCUGUCCUGGUAUCUCCAACAGAGGAUUGAGCAUCA

biological target: T1, UNK ZnF1-3; experiment: nsRBNS (natural sequence RNA bind-n-seq); RBNS binding buffer (assumed for nsRBNS): 25 mM Tris pH 7.5, 150 mM KCl, 3 mM MgCl2, 0.01% Triton X-100, 500 ug/ml BSA, 20 U/ml SUPERase-In, 4 C; UNK is unkempt and MSI1 is Musashi-1; names of the RNAs are library labels; protein concentration not given here; high values mean tight binding

How did the binding signal turn out when B1 was run?
Its binding signal is 0.644 enrichment R.

B2 was tested. Which binding signal did it give?
The binding signal was 0.485 enrichment R.

With B3 as the binder, how does the binding signal read?
The binding signal was 2.07 enrichment R.

B4 was tested. Which binding signal did it give?
The binding signal was 1.51 enrichment R.

B5 was tested. Which binding signal did it give?
The binding signal was 0.651 enrichment R.

With B6 as the binder, how does the binding signal read?
Its binding signal is 0.304 enrichment R.

B7 was tested. Which binding signal did it give?
Its binding signal is 0.832 enrichment R.

For B8, which binding signal is on record?
The binding signal was 1.66 enrichment R.

B9 was tested. Which binding signal did it give?
The binding signal was 1.43 enrichment R.

How did the binding signal turn out when B10 was run?
The binding signal was 1.15 enrichment R.

With B11 as the binder, how does the binding signal read?
Its binding signal is 0.928 enrichment R.

With B12 as the binder, how does the binding signal read?
The binding signal was 0.825 enrichment R.

With B13 as the binder, how does the binding signal read?
The binding signal was 1.21 enrichment R.

For B14, which binding signal is on record?
The binding signal was 1.25 enrichment R.

B15 was tested. Which binding signal did it give?
The binding signal was 0.678 enrichment R.

For B16, which binding signal is on record?
Its binding signal is 0.841 enrichment R.

For B17, which binding signal is on record?
Its binding signal is 1.5 enrichment R.

For B18, which binding signal is on record?
The binding signal was 1.18 enrichment R.

B19 was tested. Which binding signal did it give?
The binding signal was 0.708 enrichment R.

For B20, which binding signal is on record?
The binding signal was 0.989 enrichment R.

Which binding signal does the source give for B21 here?
The binding signal was 2.8 enrichment R.

Which binding signal does the source give for B22 here?
Its binding signal is 2.66 enrichment R.
